# Measurements as given in PubChem BioAssay (NCATS).
# “And” between values parts separate entries of the source, which are not always exact repeats. Equal values may be shown once. Inconclusive results, whose numbers are uncertain, are shown with a selection of clear calls. For part of these data: Potencies of inconclusive entries are doubtful fits and often do not repeat. For part of these data: A note “side channel” means that the fit belongs to a control or component signal, not to the main read-out. The source made the active and inactive calls. Unless noted, the call rests on the fitted dose curve; in most records, active means well fitted curve in the direction sought with a large enough effect; inconclusive means small, poorly fitted or top-dose-only effect, or another doubt; inactive means no such curve, though single readings can be large; an effect the other way counts as inactive or inconclusive.
# Key:
# [1] = P-glycoprotein substrates identified in KB-8-5-11 adenocarcinoma cell line, qHTS therapeutic library screen (AID 1346987); further: nearly all actives have a fitted effect of over 65% in size; further: potency means the concentration at half of the fitted maximal effect
# Outline: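 KB-8-5-11: colchicine-selected sub-line of KB-3-1 over-expressing P-gp; assay medium lacked colchicine. 72 h drug exposure at 37 degree C, CellTiter-Glo.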
# [2] = NS1 protein of Zika virus - qHTS assay to identify small molecule inhibitors in human HEK 293 cells (AID 1347053); further: nearly all actives have a fitted effect of over 55% in size; further: potency means the concentration at half of the fitted maximal effect
# Outline: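 HEK 293 cells, seeded 20 h at 37 C, were pretreated with compound 1 h, then infected with ZIKV MR766 (MOI = 0.5) for 24 h. NS1 was read by TR-FRET with two anti-NS1 antibodies, normalized to uninfected and infected wells.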
# [3] = biological target: Atrial natriuretic peptide receptor 1 (Homo sapiens) (UniProt P16066); assay: Natriuretic polypeptide receptor (hNpr1) antagonism - Pilot screen (AID 1347049; calls by dose curve;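 further: agonist-evoked cGMP luminescence read 20 min after hNppA addition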; further: potency means the concentration at half of the fitted maximal effect)
# Outline: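 HEK293 cells co-expressing hNpr1 and the GloSensor pGS-40F cGMP luciferase sensor were preloaded with 2% GloSensor reagent for 2 h. Compounds were added for 30 min at room temperature, then cells were stimulated with 0.1 nM hNppA for 20 min before luminescence readout.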
# [4] = biological target: T1, Tyrosine-protein phosphatase non-receptor type substrate 1 (Homo sapiens) + Leukocyte surface antigen CD47 (Homo sapiens) (UniProt P78324+Q08722); assay: CD47-SIRPalpha protein protein interaction - LANCE assay qHTS validation (AID 1347057; active means well fitted curve in the direction sought with a large enough effect in the signal ratio, with a control signal flat, not every such curve was filed as active; inconclusive means small, poorly fitted or top-dose-only effect, or effect the other way, or a change in a side signal; inactive means no such curve, though single readings can be large or run the other way; the % refers to the signal ratio; further: series mostly up to about 38 µM)
# Outline: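 First, His-tagged CD47 and Eu-labelled anti-His antibody met the compound for 30 min; next, site-specifically biotinylated SIRPalpha was added for 30 min; finally streptavidin-APC was added before reading the TR-FRET ratio.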
# [5] = biological target: Atrial natriuretic peptide receptor 2 (Homo sapiens) (UniProt P20594); assay: Natriuretic polypeptide receptor (hNpr2) antagonism - Pilot subtype selectivity assay (AID 1347050; calls by dose curve; further: potency means the concentration at half of the fitted maximal effect)
# Outline: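 cGMP-sensor HEK293/hNpr2 cells; 2% GloSensor reagent 2 h RT; compounds 30 min; baseline luminescence read; 1 nM hNppC agonist 20 min RT; final luminescence read by CCD camera. Antagonism = reduced post-agonist signal.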
# [6] = biological target: T1, Tyrosine-protein phosphatase non-receptor type substrate 1 (Homo sapiens) + Leukocyte surface antigen CD47 (Homo sapiens); assay: CD47-SIRPalpha protein protein interaction - HTRF assay qHTS validation (AID 1347058; active means well fitted curve in the direction sought with a large enough effect in the signal ratio, not every such curve was filed as active; inconclusive means small, poorly fitted or top-dose-only effect, or effect the other way, or a change in a side signal; inactive means no such curve, though single readings can be large or run the other way; the % refers to the signal ratio; further: potency means the concentration at half of the fitted maximal effect)
# Outline: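 TR-FRET read (Ch1/Ch2 ratio) of soluble extracellular CD47 and Avi-biotinylated SIRPalpha domains in PBS pH 7.4 with 0.05% IGEPAL; 7-point compound titration. Sequential 30 min room-temperature steps; non-biotinylated SIRPalpha as control inhibitor.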
# [7] = biological target: T1, Tyrosine-protein phosphatase non-receptor type substrate 1 (Homo sapiens) + Leukocyte surface antigen CD47 (Homo sapiens); assay: CD47-SIRPalpha protein protein interaction - Alpha assay qHTS validation (AID 1347059);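 further: bead proximity luminescence from CD47 binding SIRPalpha after compound preincubation with SIRPalpha; potency means the concentration at half of the fitted maximal effect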
# Outline: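 Soluble extracellular domains: Avi-tag biotinylated SIRPalpha (25 nM) preincubated 30 min RT with compound, then 6His-CD47 (12.5 nM) 30 min; Ni-NTA acceptor and streptavidin donor beads (10 ug/mL) 30 min, AlphaScreen read. PBS pH 7.4, 0.05% IGEPAL.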
# [8] = qHTS of pediatric cancer cell lines to identify multiple opportunities for drug repurposing: Primary screen for TC32 cells (AID 1347089); further: potency means the concentration at half of the fitted maximal effect; nearly all actives have a fitted effect of over 60% in size
# Outline: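 In the primary qHTS, MIPE compounds were tested at 11 concentrations (0.78 nM to 46 µM) and NPC compounds at 8 (0.59 nM to 46 µM) on TC32 cells for 48 h. CellTiter-Glo luminescence gave viability.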
# Tags describe the fitted curve by direction and shape.
# UniProt P20594, sequence (P20594 whole entry, looked up): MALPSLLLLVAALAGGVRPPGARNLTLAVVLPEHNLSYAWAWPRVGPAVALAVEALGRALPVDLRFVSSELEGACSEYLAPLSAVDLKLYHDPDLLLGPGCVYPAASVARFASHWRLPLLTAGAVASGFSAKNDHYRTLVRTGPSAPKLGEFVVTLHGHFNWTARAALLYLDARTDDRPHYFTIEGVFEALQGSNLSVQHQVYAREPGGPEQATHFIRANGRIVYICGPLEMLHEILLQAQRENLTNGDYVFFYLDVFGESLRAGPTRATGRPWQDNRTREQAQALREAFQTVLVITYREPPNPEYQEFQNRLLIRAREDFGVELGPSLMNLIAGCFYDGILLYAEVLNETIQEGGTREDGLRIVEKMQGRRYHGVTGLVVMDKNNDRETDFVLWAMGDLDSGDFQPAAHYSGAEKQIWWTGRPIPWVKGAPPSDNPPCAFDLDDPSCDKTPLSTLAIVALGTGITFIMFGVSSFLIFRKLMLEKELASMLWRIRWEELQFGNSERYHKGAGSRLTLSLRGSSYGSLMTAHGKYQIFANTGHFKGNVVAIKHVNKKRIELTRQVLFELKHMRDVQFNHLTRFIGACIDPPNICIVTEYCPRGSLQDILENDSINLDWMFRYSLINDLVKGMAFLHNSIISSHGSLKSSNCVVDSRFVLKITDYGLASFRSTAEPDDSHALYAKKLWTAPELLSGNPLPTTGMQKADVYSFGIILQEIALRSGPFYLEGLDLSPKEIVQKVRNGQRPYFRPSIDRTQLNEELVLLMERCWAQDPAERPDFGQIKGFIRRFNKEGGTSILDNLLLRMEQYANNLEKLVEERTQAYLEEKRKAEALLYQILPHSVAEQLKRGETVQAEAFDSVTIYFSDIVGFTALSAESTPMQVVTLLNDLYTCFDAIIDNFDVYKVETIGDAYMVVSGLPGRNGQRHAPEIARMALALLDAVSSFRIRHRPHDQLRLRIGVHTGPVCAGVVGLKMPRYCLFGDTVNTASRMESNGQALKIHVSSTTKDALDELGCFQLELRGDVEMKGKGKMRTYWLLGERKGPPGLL
# UniProt P16066, sequence (P16066 whole entry, looked up): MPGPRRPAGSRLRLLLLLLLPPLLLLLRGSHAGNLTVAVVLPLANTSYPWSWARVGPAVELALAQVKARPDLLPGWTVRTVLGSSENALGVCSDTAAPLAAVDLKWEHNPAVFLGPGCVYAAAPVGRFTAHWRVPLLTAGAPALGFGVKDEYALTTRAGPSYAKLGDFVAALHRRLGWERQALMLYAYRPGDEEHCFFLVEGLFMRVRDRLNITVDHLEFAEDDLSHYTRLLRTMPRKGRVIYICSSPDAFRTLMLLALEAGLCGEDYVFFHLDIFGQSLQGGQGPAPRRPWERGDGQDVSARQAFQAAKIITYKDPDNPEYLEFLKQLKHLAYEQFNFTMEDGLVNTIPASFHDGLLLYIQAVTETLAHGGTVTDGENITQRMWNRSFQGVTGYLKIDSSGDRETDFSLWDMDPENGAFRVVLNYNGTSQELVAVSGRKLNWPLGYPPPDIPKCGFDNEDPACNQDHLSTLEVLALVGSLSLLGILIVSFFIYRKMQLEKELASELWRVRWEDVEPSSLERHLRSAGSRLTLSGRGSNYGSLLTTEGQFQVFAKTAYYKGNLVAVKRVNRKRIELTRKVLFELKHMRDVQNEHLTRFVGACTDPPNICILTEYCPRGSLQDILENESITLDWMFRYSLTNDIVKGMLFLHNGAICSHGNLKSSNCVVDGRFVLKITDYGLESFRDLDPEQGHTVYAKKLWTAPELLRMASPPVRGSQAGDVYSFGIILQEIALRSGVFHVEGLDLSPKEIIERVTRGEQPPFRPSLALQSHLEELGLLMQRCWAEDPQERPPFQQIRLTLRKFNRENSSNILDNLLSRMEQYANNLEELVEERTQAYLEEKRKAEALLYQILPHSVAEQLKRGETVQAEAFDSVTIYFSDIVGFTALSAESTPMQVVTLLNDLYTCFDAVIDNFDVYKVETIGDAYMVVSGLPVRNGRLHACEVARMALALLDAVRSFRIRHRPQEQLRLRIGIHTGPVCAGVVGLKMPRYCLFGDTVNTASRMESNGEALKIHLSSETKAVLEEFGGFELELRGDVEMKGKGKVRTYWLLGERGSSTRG
# T1 sequence (P78324 whole entry, looked up): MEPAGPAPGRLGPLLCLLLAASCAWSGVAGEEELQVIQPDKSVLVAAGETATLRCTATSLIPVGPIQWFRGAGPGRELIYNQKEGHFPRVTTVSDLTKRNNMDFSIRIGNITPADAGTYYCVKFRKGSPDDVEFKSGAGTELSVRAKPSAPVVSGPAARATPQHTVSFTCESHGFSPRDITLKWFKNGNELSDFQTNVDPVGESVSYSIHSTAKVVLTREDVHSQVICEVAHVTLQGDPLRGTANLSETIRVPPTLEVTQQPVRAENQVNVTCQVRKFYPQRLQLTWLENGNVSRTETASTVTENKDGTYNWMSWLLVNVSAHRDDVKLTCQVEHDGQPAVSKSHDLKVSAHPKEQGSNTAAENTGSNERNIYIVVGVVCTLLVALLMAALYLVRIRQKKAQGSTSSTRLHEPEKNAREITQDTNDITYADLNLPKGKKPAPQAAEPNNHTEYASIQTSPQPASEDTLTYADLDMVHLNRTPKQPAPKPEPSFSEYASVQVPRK
# T1 sequence (Q08722 whole entry, looked up): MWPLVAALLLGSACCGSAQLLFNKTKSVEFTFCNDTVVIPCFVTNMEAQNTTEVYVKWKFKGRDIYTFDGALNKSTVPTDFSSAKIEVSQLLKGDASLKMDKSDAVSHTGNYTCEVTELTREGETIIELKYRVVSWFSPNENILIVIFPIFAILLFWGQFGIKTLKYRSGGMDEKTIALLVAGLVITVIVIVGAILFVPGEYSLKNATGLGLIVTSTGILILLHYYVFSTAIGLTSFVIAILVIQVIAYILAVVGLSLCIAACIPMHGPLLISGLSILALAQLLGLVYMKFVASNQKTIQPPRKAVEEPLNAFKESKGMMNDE
smiles,measurement,setting,value
CNC1CCC(N(Cc2cccc(-c3ccncc3)c2)C(=O)c2sc3ccccc3c2Cl)CC1 (stereo not drawn),Potency,[1],active: 11.8 µM and active: 20.6 µM
same,Potency,[2],active: 9.35 µM
CN(C)CCc1c[nH]c2ccc(C[C@H]3COC(=O)N3)cc12,Potency,[1],inactive
C=CC(=O)N1CCc2ccc(-n3c(=O)ccc4cnc5ccc(-c6cnn(C)c6)cc5c43)cc21,Potency,[1],"inconclusive: 11.8 µM [inhibitor, single point] and inconclusive: 14.2 µM [inhibitor, single point]"
same,Potency,[2],active: 2.96 µM
CCCCS(=N)(=O)CCC(N)C(=O)O (stereo not drawn),Potency,[1],inactive
same,Potency,[3],inactive
NC(=NCCCCCCN=C(N)N=C(N)Nc1ccc(Cl)cc1)N=C(N)Nc1ccc(Cl)cc1,Potency,[1],"inconclusive: 23.5 µM [inhibitor, single point]"
CCCCCCOC(=O)N=C(N)c1ccc(NCc2nc3cc(C(=O)N(CCC(=O)OCC)c4ccccn4)ccc3n2C)cc1,Potency,[1],inactive
same,Potency,[2],"inconclusive: 33.2 µM [inhibitor, single point]"
Cc1c(CN2CCN(S(C)(=O)=O)CC2)sc2c(N3CCOCC3)nc(-c3cnc(N)nc3)nc12,Potency,[1],active: 41.8 nM and active: 291 nM
same,Potency,[2],"inconclusive: 1.48 µM [inhibitor, full curve]"
Nc1ncnc2c1c(-c1cccc(OCc3ccccc3)c1)cn2C1CC(CN2CCC2)C1 (stereo not drawn),Potency,[1],"inconclusive: 10.5 µM [inhibitor, partial curve] and inconclusive: 10.3 µM [inhibitor, partial curve, poor fit]"
O=C(O)CCCc1c[nH]c2ccccc12,Potency,[1],inactive
c1ccc([C@H]2CN3CCSC3=N2)cc1,Potency,[1],inactive
same,Potency,[3],"inconclusive: 3.01 µM [inhibitor, single point]"
Nc1nc(Cl)nc2c1ncn2[C@@H]1O[C@H](CO)[C@@H](O)[C@H]1F,Potency,[1],"inconclusive: 0.0526 µM [inhibitor, full curve]"
same,Potency,[2],"inconclusive: 23.5 µM [inhibitor, single point]"
Clc1ccccc1CN1CCc2sccc2C1,Potency,[1],inactive
Cc1ccc(S(=O)(=O)N[C@@H](Cc2ccccc2)C(=O)CCl)cc1,Potency,[1],"inconclusive: 33.2 µM [inhibitor, single point]"
same,Potency,[3],active: 12 µM
same,Potency,[2],"inconclusive: 35.5 µM [inhibitor, single point]"
same,Potency,[4],inactive
COc1ccc(CC2c3cc(OC)c(OC)cc3CC[N+]2(C)CCC(=O)OCCCCCOC(=O)CC[N+]2(C)CCc3cc(OC)c(OC)cc3C2Cc2ccc(OC)c(OC)c2)cc1OC (stereo not drawn),Potency,[1],inactive
C[C@@H]1CC=CC=CC=CC=C[C@@H](O[C@@H]2O[C@H](C)[C@@H](O)[C@H](N)[C@H]2O)C[C@@H]2O[C@](O)(C[C@@H](O)C[C@@H]3O[C@@H]3C=CC(=O)O1)C[C@H](O)[C@@H]2C(=O)O,Potency,[1],"inconclusive: 33.2 µM [inhibitor, single point]"
CC[C@H](C)C(=O)O[C@H]1C[C@H](O)C=C2C=C[C@H](C)[C@H](CC[C@@H](O)C[C@@H](O)CC(=O)O)[C@H]21,Potency,[1],inactive
CCOC(=O)C1=C(C)NC(=S)NC1c1cccc(O)c1 (stereo not drawn),Potency,[1],active: 4.18 µM
same,Potency,[2],active: 0.332 µM
CC(=O)O[C@H]1C(=O)[C@@]2(C)C([C@H](OC(=O)c3ccccc3)[C@]3(O)C[C@H](OC(=O)[C@H](O)[C@@H](NC(=O)c4ccccc4)c4ccccc4)C(C)=C1C3(C)C)[C@]1(OC(C)=O)CO[C@@H]1C[C@@H]2O (stereo partly drawn),Potency,[1],active: 209 nM and active: 1.01 µM
same,Potency,[3],"inconclusive: 37.9 µM [inhibitor, single point]"
same,Potency,[2],active: 0.0066 µM
CN(C)CCC=C1c2ccccc2C=Cc2ccccc21,Potency,[1],"inconclusive: 14.6 µM [inhibitor, partial curve, poor fit]"
same,Potency,[3],"inconclusive: 37.9 µM [inhibitor, single point]"
same,Potency,[5],active: 16.5 µM
same,Potency,[2],"inconclusive: 33.2 µM [inhibitor, partial curve, poor fit]"
CNC[C@@H](O)[C@@H](O)[C@H](O)[C@H](O)CO,Potency,[1],inactive
CCC(=O)O[C@]1(C(=O)CCl)[C@@H](C)C[C@H]2[C@@H]3CCC4=CC(=O)C=C[C@]4(C)[C@@]3(F)[C@@H](O)C[C@@]21C,Potency,[1],"inconclusive: 13 µM [inhibitor, partial curve] and inactive"
C=C[C@@H]1CN2CCC1C[C@H]2[C@H](O)c1ccnc2ccc(OC)cc12 (stereo partly drawn),Potency,[1],inactive
O=c1[nH]cnc2[nH]ncc12,Potency,[1],"inconclusive: 37.2 µM [inhibitor, partial curve, poor fit]"
CC=C(C(=CC)c1ccc(O)cc1)c1ccc(O)cc1,Potency,[1],"inconclusive: 37.2 µM [inhibitor, single point]"
Fc1ccc([C@@H]2CCNC[C@H]2COc2ccc3c(c2)OCO3)cc1,Potency,[1],"inconclusive: 20.6 µM [inhibitor, single point] and inconclusive: 16.6 µM [inhibitor, partial curve]"
same,Potency,[5],"inconclusive: 14.7 µM [inhibitor, single point]"
same,Potency,[2],"inconclusive: 35.5 µM [inhibitor, single point]"
same,Potency,[6],"inconclusive: 26.1 µM [side channel, falling, single point]"
same,Potency,[7],"inconclusive: 9.27 µM [inhibitor, partial curve]"
COc1cc2c(c(OC)c1OC)-c1ccc(OC)c(=O)cc1[C@@H](NC(C)=O)CC2,Potency,[1],active: 23.1 µM and active: 132 nM
same,Potency,[5],"inconclusive: 1.85 µM [inhibitor, full curve, poor fit]"
same,Potency,[2],"inconclusive: 0.0037 µM [inhibitor, full curve, poor fit]"
same,Potency,[6],"inconclusive: 16.5 µM [side channel, falling, partial curve]"
same,Potency,[8],active: 7.5 nM and active: 1.3 nM
Cc1cc(-c2ncc(CC(=O)Nc3ccc(-c4cnccn4)cn3)cc2C)ccn1,Potency,[1],"inconclusive: 5.9 µM [inhibitor, full curve, poor fit] and inconclusive: 8.2 µM [inhibitor, partial curve]"
Cc1cc(Nc2nc(N[C@@H](C)c3ccc(F)cc3)c(C#N)cc2F)n[nH]1,Potency,[1],active: 935 nM and active: 580 nM
O=C(Nc1cccc2c(=O)cc(-c3nn[nH]n3)oc12)c1ccc(OCCCCc2ccccc2)cc1,Potency,[1],"inconclusive: 26.4 µM [inhibitor, partial curve]"
same,Potency,[2],"inconclusive: 37.2 µM [inhibitor, single point]"
Cn1cnc2c(F)c(Nc3ccc(Br)cc3F)c(C(=O)NOCCO)cc21,Potency,[1],inactive
CN(C)CC(=O)N1CCC(c2ccc(NC(=O)c3ncc(C#N)[nH]3)c(C3=CCCCC3)c2)CC1,Potency,[1],"inconclusive: 13 µM [inhibitor, partial curve, poor fit]"
same,Potency,[2],"inconclusive: 37.2 µM [inhibitor, partial curve, poor fit]"
CC(C)Oc1ccc(C(=O)N[C@H](CNC(=O)CN(C)C)Cc2ccc(-c3cn4cccc([C@H](C)O)c4n3)cc2)cc1Cl,Potency,[1],active: 26.4 µM
CN1CCN2c3ccccc3Cc3ccccc3C2C1 (stereo not drawn),Potency,[1],"inconclusive: 20.6 µM [inhibitor, single point]"
same,Potency,[2],"inconclusive: 37.2 µM [inhibitor, single point] and inactive"
CN1CCCN(C(=O)c2cccc(-c3ccc(C=C4C(=O)Nc5ccc(Cl)cc54)o3)c2)CC1,Potency,[1],active: 16.6 µM
same,Potency,[2],"inconclusive: 37.2 µM [inhibitor, single point]"
Fc1ccc(CNc2ncnc3ccc(F)cc23)cc1,Potency,[1],"inconclusive: 9.35 µM [inhibitor, partial curve] and inconclusive: 4.11 µM [inhibitor, partial curve]"
same,Potency,[8],"inconclusive: 18.6 µM [cytotoxic, single point]"
CC[C@]1(O)C[C@H]2CN(CCC3=c4ccccc4=N[C]3[C@@](C(=O)OC)(c3cc4c(cc3OC)N(C)[C@H]3[C@@](O)(C(N)=O)[C@H](O)[C@]5(CC)C=CCN6CC[C@]43[C@@H]65)C2)C1,Potency,[1],active: 1.48 µM
same,Potency,[2],active: 1.66 µM
C[C@@]12C[C@@]3(O)O[C@@H](O1)[C@]1(COC(=O)c4ccccc4)[C@@H]3C[C@@]12O[C@@H]1O[C@H](CO)[C@@H](O)[C@H](O)[C@@H]1O,Potency,[1],inactive
same,Potency,[2],inactive
COC1CCC(C(=O)c2ccc3nc4c(cc3c2)CCCO4)CC1 (stereo not drawn),Potency,[1],"inconclusive: 26.4 µM [inhibitor, partial curve]"
same,Potency,[2],"inconclusive: 37.2 µM [inhibitor, single point]"
Cc1ccc(S(=O)(=O)NC(=O)NN2CC3CCCC3C2)cc1 (stereo not drawn),Potency,[1],"inconclusive: 23.5 µM [inhibitor, single point]"
same,Potency,[2],"inconclusive: 37.2 µM [inhibitor, single point]"
COc1ccc2ccc(=O)oc2c1CC=C(C)C,Potency,[1],inactive
same,Potency,[2],"inconclusive: 37.2 µM [inhibitor, single point]"
COC1=C2C[C@@H](C)C[C@H](OC)[C@@H](O)[C@@H](C)C=C(C)[C@H](OC(N)=O)[C@@H](OC)C=CC=C(C)C(=O)NC(=CC1=O)C2=O,Potency,[1],active: 13.2 µM
same,Potency,[2],"inconclusive: 33.2 µM [inhibitor, single point]"
Cc1cc(OCCCS(C)(=O)=O)cc(C)c1-c1cccc(COc2ccc3c(c2)OC[C@H]3CC(=O)O)c1,Potency,[1],"inconclusive: 18.7 µM [inhibitor, partial curve]"
same,Potency,[2],"inconclusive: 37.2 µM [inhibitor, single point]"
